Experimental data: the supplement of paper PMC10126150
Sequences with one replicate were seen in a single cluster, so their values are uncertain.

Test system: ATP
Assay: switch fluorescence ratio, 500 uM ATP over buffer (Cy3 cluster intensity, sum of 5 cycles each) (fold (ratio)); higher = stronger signal-on switching upon ATP binding; sequences stand for … in TCGTCGGCAGCGTCAGATGTGTATAAGAGACAGTTTTTTTTTTTTTTTTTTTTTTTTT…TC
Conditions: aptamer strand: ATP DNA aptamer (quencher-CACCTGGGGGAGTATTGCGGAGGAAGG + anchor), 100 nM annealed; ATP concentration: 500 uM; one replicate
How it was run: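 For every switch-domain sequence, the fluorescence ratio is the mean of per-cluster values, each being summed target-cycle Cy3 intensity over summed buffer-cycle Cy3 intensity. Clusters outside 100-1000 RFU were excluded. On a modified Illumina MiSeq flow-cell, the Cy3-labelled switching-strand clusters were annealed to 100 nM quencher-labelled ATP aptamer, imaged in selection buffer and then after 15 min with 500 uM ATP at 22 °C. Five such cycles were run, with NaOH stripping and re-annealing between them.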
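Also: ATP exposure 15 min at 22 °C before imaging.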

Row | Sequence | switch fluorescence ratio
1 | CTTTAACTGC | 1.01
2 | AGTGAGGTTA | 1.03
3 | ATCCAGTCCT | 1.04
4 | GGGTGGGACA | 1.01
5 | GTTCGCAGCG | 1
6 | CAAAGGTTAA | 0.981
7 | CTCAAATAGT | 1.02
8 | ACTGTGTAGT | 1.01
9 | ACCGTACTGT | 1.58
10 | ATTTTCGACC | 1.09
11 | TCATGTGGGT | 0.992
12 | AGGTTGGTCT | 0.994
13 | TCCTGATGTG | 1.02
14 | TAGGGGTCA | 1.02
15 | ACCCTGGCGG | 1.04
16 | TTGGTCGGTG | 1.03
17 | AAATACAACA | 1.06
18 | ATGCCGGCTG | 1.04
19 | CAGGTCGCGT | 1.01
20 | AGCCGACGTA | 1.02
21 | CATAGTTGGC | 1.06
22 | TTATGTTTAC | 1.02

Row | Sequence | switch fluorescence ratio
23 | AGCTACTGTT | 1.05
24 | CTGACTTATT | 1.07
25 | AACCAGACGT | 1.31
26 | CTCAGAGATG | 1.01
27 | AAGCGGGCCA | 1.08
28 | TCAGGAAAAA | 1.1
29 | CAAATAAAGC | 0.962
30 | GGATAACGAA | 1.05
31 | TATCTGCTCA | 0.966
32 | TTCTTCTTG | 0.974
33 | GATAATTAGT | 0.984
34 | GAAACACCCA | 1.07
35 | TCAGACTTAA | 1.07
36 | GCCTCGGCTA | 1.15
37 | GCATTATCGG | 0.999
38 | ACACAGGCAA | 0.942
39 | TCGATCATGC | 1.19
40 | TTAATCTCGA | 0.99
41 | GGCACTAGGT | 1.03
42 | TTGCTAGGGG | 1.07
43 | TACACCAGAA | 1.05
44 | GGCTGCAGGG | 0.956

Row | Sequence | switch fluorescence ratio
45 | TTCGGGTGTA | 0.995
46 | TAGCAATTGT | 1.03
47 | GAAAATCTTT | 0.992
48 | ACACGTAAAT | 1.56
49 | TGTGGGGCCG | 1.03
50 | ATCGGACCGC | 1.07
51 | CGAGGAGGAC | 1.06
52 | AGCTCTATGA | 0.961
53 | AGAACATGGG | 1
54 | GCGTGTTGCA | 1.05
55 | GTAAATAGTG | 1.05
56 | CGCATTAGGC | 1.59
57 | TTCCGTCGCC | 0.983
58 | CGCGGGTCCG | 0.983
59 | GTAACTCGCT | 1.03
60 | CCCCCCATCA | 1.03
61 | GCTGTCTTGG | 1
62 | TTTCTTCATA | 1.02
63 | ATGCTTGATG | 0.997
64 | ACAGCTAATT | 1.03
65 | TTCTGTGCCG | 0.996
66 | CGTTCCGACA | 1.38

Row | Sequence | switch fluorescence ratio
67 | TACTCAAGTT | 1.04
68 | AGGGGACGT | 0.992
69 | TGCTAATATT | 0.972
70 | TAATGCTAG | 1.02
71 | ACCGCGTGCT | 1.06
72 | TCGGCTTTAT | 1.02
73 | TGATTGCCGC | 1.02
74 | TCGTCGACAA | 2.94
75 | GCGAACGCCA | 1.26
76 | AAACAGGCG | 1.03
77 | ATTTAAGCCA | 0.974
78 | TTGGCCGCCG | 0.927
79 | GGTCACAAGG | 1
80 | ATCCCAACCT | 1.66
81 | ACTTTGAAGA | 1.01
82 | AGTGTTTAGT | 0.966
83 | TGATCGTGTT | 1.01
84 | GCTGTAGCTG | 1.01
85 | CGAAGATGCT | 1.01
